Experimental data published in the RNAGym collection of RNA variant scans (doi:10.7554/elife.90254).
The source gives no read counts; variants with many changes may rest on few reads.

B1: LINE1-full (parent)
chain: UACGUAGGUGGUUUUCCCCUGAUAGUGCUAAGGGGGCCUGGAAGUUUGGACUGGGCAGAGCUCAACACAGCGUGGCAAAGUGGCUGUGGCUAGACUGCCUCUCUGGAUUCCUCGUCACUCAGCAGGGCAUCUCUGAGAGAAAUGCC

Variants of: B1
Assay: self-cleavage, relative activity (ratio to wild type); higher = more cleavage; in vitro, sequencing; the parent is a self-cleaving ribozyme

Variant | self-cleavage
A31C C71G U73A | 0.09
A31C G34A U115C | 0
A31C U47A U62C U104A G139U | 0.04
A31C U52C U73A | 2.12
A31C U85C A140G | 0.25
A31C U100A U132C A141G | 0.52
A31G A43G G80C G83U | 0.84
A31G A43G U104C | 1.05
A31G A43G U108C A138U | 0
A31G A50G A107G | 0.92
A31G A50G A140G | 0.28
A31G A50G A141G | 0.78
A31G A57G U143A | 1.15
A31G A57U U115C | 0
A31G A59C A142G | 0
A31G A59G U100C A136G | 0
A31G A64G A141G | 0.44
A31G A64G U87A U119A | 0
A31G A65G A140G | 0
A31G A65G U96C | 0
A31G A65U A77G U91C | 0.42
A31G A69G A117G | 1.31
A31G A69G A138G | 0.54
A31G A69G G89A | 0.04

Variant | self-cleavage
A31G A69U C71U U96A | 0.02
A31G A77G U81G A124G | 1.02
A31G A79C U130A | 1.72
A31G A79G G97A U143C | 0.16
A31G A79G U115C | 1.77
A31G A79U A121U C146U | 1.96
A31G A94U A121G A136U | 0
A31G A107G A117U | 1.41
A31G A129G U134C | 0.9
A31G A142U C146U | 1.45
A31G C66U G93U C113A | 0.02
A31G C90G C101U A140U | 0.04
A31G G33A U73C | 2.1
A31G G33A U132C A138G | 0.54
A31G G34A U96C | 0.1
A31G G35A A57G | 0.6
A31G G36A U119A U130C | 1.41
A31G G36C G58U A79G U81A U100A C113A A140G | 0.01
A31G G55C U119C C123U | 0.18
A31G G60U A65G | 0.06
A31G G80A A117U | 2
A31G U39A G75A U102C | 0.95
A31G U39A U52G | 1.41
A31G U39C A78G | 1.06

Variant | self-cleavage
A31G U39C C113U | 0.67
A31G U39C U46C A124U | 1.84
A31G U39C U81A | 1.31
A31G U39C U102A C128U | 0.74
A31G U45C U104C | 2.51
A31G U45G C63U | 0.54
A31G U46A C146U | 0.48
A31G U46C A57U | 0.36
A31G U46C A78G | 1.34
A31G U46C U81C A117C | 0
A31G U47A C63U | 0.16
A31G U47A U100C U108A | 1.4
A31G U47C A64G U108C G114U | 0
A31G U52C U85G | 0
A31G U62C A69U | 0
A31G U62C A94U U108C | 0
A31G U73A A79U A121U A136C | 1.83
A31G U73C G93A | 0.12
A31G U87A A94G A129U | 0.04
A31G U91A A107G | 0.34
A31G U100C U112A | 0.37
A31G U108C C111U | 0
A31G U112C A140G | 0.49
A31G U112C U119A A129U | 0.9

Variant | self-cleavage
A31G U112G C113U A138G | 1.8
A31G U130A A136G | 1.57
A31U A42G C51A A65G | 0.08
A31U A43U U45C | 0.68
A31U A50G A140G | 0.84
A31U A57G A67U G83U | 0.13
A31U A57G C113U A124G | 1.08
A31U A57G U73G U87C A136G | 0.51
A31U A57U A65G A78G C90A | 0.02
A31U A57U A79G U115A | 0.04
A31U A64G C123U | 0.24
A31U A64U G114A | 0.32
A31U A65U A79G | 0.2
A31U A67C U85A U104A A140G | 0
A31U A69G A79G C128U U143A | 0.17
A31U A69U A92U A140G | 0.07
A31U A69U A117G | 0.05
A31U A94G A129U | 0.11
A31U A107G A141G A142G | 0
A31U A117U U119C | 1.57
A31U C63A U109C C123U A124G A136G | 0.06
A31U C63U A64G U134A | 0.11
A31U C99A A141G | 0.34
A31U G33A U47C A77G A107G A142G | 0.54

Variant | self-cleavage
A31U G34A A136G | 1.26
A31U G35A A42G A59C A67G U119A A140G | 0.31
A31U G44A A57U A64G U119A U130C | 0.13
A31U G48U A79G | 0.48
A31U G49A A124U | 1.24
A31U G55A A78C U81C A117U | 0.21
A31U G72U U143C | 0.46
A31U G74A A94G G137A U143C | 0.46
A31U G75A A117U | 1.37
A31U U39A A107U | 0.79
A31U U46C U115C A129G | 2.04
A31U U47A A138U | 0.7
A31U U47A U73C A129G | 0.47
A31U U47C A65G U102C | 0
A31U U47C C123U | 1.37
A31U U52A A77G U87C U115C | 0
A31U U62C U143A | 0.05
A31U U85C A107U A140U | 0.07
A31U U85C A129U | 0.48
A31U U96C A142G | 0.14
A31U U96C U108C U115G | 0
A31U U104C A142U | 1.23
A31U U109A U119C | 1.5
A31U U134A A140G | 0.38

Variant | self-cleavage
G32A A42G C68A A107G | 0.07
G32A A42G U52C | 1.01
G32A A42U C68U U87C G105U | 0.03
G32A A43G A78G | 0.93
G32A A43G C128U U134C U143C | 1.12
G32A A50G G106U | 0.57
G32A A50G U130C | 0
G32A A50U A65G C128U | 0.04
G32A A57G A140G | 0.57
G32A A59U G89A U112C A129G | 0.04
G32A A64G U109A | 0.15
G32A A65G A69G A140G A141G | 0.14
G32A A65G G86A G93A | 0.02
G32A A77G U134C | 1.95
G32A A77U A141G | 1.56
G32A A78G U119C | 1.33
G32A A78U A121U | 1.88
G32A A92G C99U | 0.03
G32A A107G U132A | 1.46
G32A A124G A136U U143A | 1.56
G32A C51A U96C | 0.17
G32A C63U A94G U100C | 0.01
G32A G72A U85C | 0.07
G32A U45A U102G U143C | 0.64

Variant | self-cleavage
G32A U45C U108C | 0.42
G32A U46C A64G U109A | 0.18
G32A U47C U104C U115A | 0.92
G32A U62C U100C U109C | 0.04
G32A U73C U91A | 0.72
G32A U81A U85C A92G | 1.02
G32A U91C G127A A141U | 0.27
G32A U102C A124G G126A | 1.59
G32C A43G U87A | 0.07
G32C A50U U112A | 1.01
G32C A59G A64G | 0
G32C A64G A69G | 0
G32C A69U C71U | 0.04
G32C G54A U115C | 0.8
G32C U39A U45G | 1.02
G32C U45C A79G A129G | 0
G32C U119C A138G | 1.64
G32U A42G C56U A67U U87C | 0.02
G32U A64G U102C | 0.07
G32U A67G U91C U112A | 0.12
G32U A67U U87A U134G A136G A141G | 1.04
G32U A69G U100A | 0.21
G32U A77G A140G | 1.9
